The list shows a part of the results.

To fix the notation:
B1: chr1:27612063:27612913:-|three_prime_utr|ENSG00000000938|control|control|control (ssRNA)
RNA: GGGAGUUCUACAGUCCGACGAUCGGUGGCCACCAGUCCUUGCCAAUCCCCAGAGCUGUUCUUCCAAAGCCCCCAGGCUGGCUUAGAACCCCAUAGAGUCCUAGCAUCACCGAGGACGUGGCUGCUCUGACACCACCUAGGGCACAACAGAGGAUUGAGCAUCA
B2: chr17:48061271:48061372:+|3pUTR|ENSG00000082641|msi1|total|mutant (ssRNA)
RNA: GGGAGUUCUACAGUCCGACGAUCAGUGAAAUGGGGGUGGGGGGAAGCACUGAUUCCCAGUCCGGGGGUGCCUAACUGAGCAGCCGGGACCGAAGGUGUGAACCUGGGAGUGCUUUUAUAAAUUAUUUUCCUUGCCGAUUUUAUCAACAGAGGAUUGAGCAUCA
B3: chr15:25371268:25371377:-|CDS|ENSG00000114062|unk|total|mutant (ssRNA)
RNA: GGGAGUUCUACAGUCCGACGAUCCACAAUGUAUACUCUCGAGAUCCUAAUUAUCUGAAUUUGUUCAUUAUCGUAAUGGAGAACCGAAAUCUCCACAGUCCUGAAUAUCUGGAAAUGGCUUUGCCAUUAUUUUGCAAAGCGAUGCAACAGAGGAUUGAGCAUCA
B4: chr2:120222042:120222143:-|CDS|ENSG00000226479|msi1|FALSE|bound_elsewhere (ssRNA)
RNA: GGGAGUUCUACAGUCCGACGAUCGAAAUUUUCCCAUUUUUAAGAGAAUAUGGGAACAUUUCAUAUGAUCUCCAUCACGAAGAUAGUGAAGAUGCUGAAGAAACAUCAGUUCCAGAAGCUCCGAAAAUUGCUCCAAUAUUUGGACAACAGAGGAUUGAGCAUCA
B5: chr1:71070866:71070979:-|CDS|ENSG00000132485|unk|FALSE|bound_elsewhere (ssRNA)
RNA: GGGAGUUCUACAGUCCGACGAUCGAGGAUGAAGAUGACGCUGAUCUCUCAAAAUAUAAUCUUGAUGCCAGUGAAGAAGAAGAUAGUAAUAAAAAGAAAUCUAAUAGACGAAGUCGCUCAAAGUCUCGAUCUUCACAUUCACGACAACAGAGGAUUGAGCAUCA
B6: chr6:151351738:151351839:+|CDS|ENSG00000131016|msi1|FALSE|unique (ssRNA)
RNA: GGGAGUUCUACAGUCCGACGAUCGGUGGUGGGGCAGACCACCCCAGAAAGCUUUGAAAAAGCUCCUCAAGUCACAGAGAGCAUAGAGUCCAGUGAGCUUGUAACCACUUGUCAAGCCGAAACCUUAGCUGGGGUAAAAUCACACAACAGAGGAUUGAGCAUCA
B7: ENSG00000173848:stop:overlap|stop_codon|ENSG00000173848|stop_codon|NA|stop_codon (ssRNA)
RNA: GGGAGUUCUACAGUCCGACGAUCGCAUCCGAAGAGCGAGGGACAAAGCCCUUUCUGGUGGCAAACGGAAAGAGACUUUGGUGUAGAGAAGGCUCUGUGUGUUAACUGAUGGGAGAGACUGUUUGUUUAUAAAUGUGUACAGUUCAACAGAGGAUUGAGCAUCA
B8: ENSG00000107863:be:win_2801|CDS|ENSG00000107863|bound_else_gene|NA|bound_elsewhere_windowed (ssRNA)
RNA: GGGAGUUCUACAGUCCGACGAUCAGGAAGGGUGGCUUCAUUUCCGACCCCUUGUCACCGAUAAGGGCAAGCGAGUUGGUGGAAGUAUUCGGCCAUGGAAACAGAUGUAUGUUGUCCUUCGGGGUCAUUCACUUUACCUGUACACAACAGAGGAUUGAGCAUCA
B9: chr2:48720039:48721685:-|three_prime_utr|ENSG00000138039|control|control|control (ssRNA)
RNA: GGGAGUUCUACAGUCCGACGAUCGACUCUCUUUUAUAUCACUGGAUUCUAAAAAUUGGUAUCCUUGGUGCACUGCCUUUGUAUAGUACUUUUACUUUGUGUAGAUGUAAUUUUACAUGUAUAAUUGUCAUGUUACAAAGCUGUCAACAGAGGAUUGAGCAUCA
B10: chr12:30629720:30629821:-|3pUTR|ENSG00000133704|msi1|FALSE|bound_elsewhere (ssRNA)
RNA: GGGAGUUCUACAGUCCGACGAUCCUUCUUGCUUUCUCACCUAUUUGAAUUUUCUCCUACCUAAUUUGUUUGUGUCUUUAUUAUAGCUCAGUUUGACUUCUCAAACUUUUCAAGGGUUGGGGCAGCUGCACUUUUAGGUUGCCUCAACAGAGGAUUGAGCAUCA
B11: chr14:52327222:52327364:+|CDS|ENSG00000125384|unk|total|mutant (ssRNA)
RNA: GGGAGUUCUACAGUCCGACGAUCAUUUUUGCAUAUAUGAAUGAAACCUCUUCCCGAAAGGAAAAAUGGGACCUCCAAGCUCUCCGGUUUUUAUCAAUUAAUUCAAUAAUUGACCCUUGGGUCUUUGCCAUCCUCCGGCCUCCUCAACAGAGGAUUGAGCAUCA
B12: chr1:111117940:111118053:-|3pUTR|ENSG00000156171|unk|FALSE|unique (ssRNA)
RNA: GGGAGUUCUACAGUCCGACGAUCAGGCUGACAGUAACACUGAUGAAUGCUGAUAAUCAGGAAACAUGAAAGAAGCCAUUUGAUAGAUUAUUCUAAAGGAUAUCAUCAAGAAGACUAUUAAAAACACCUAUGCCUAUACUUUUUCAACAGAGGAUUGAGCAUCA
B13: ENSG00000198589:be:win_5801|CDS|ENSG00000198589|bound_else_gene|NA|bound_elsewhere_windowed (ssRNA)
RNA: GGGAGUUCUACAGUCCGACGAUCUGUGUGAUCAUUUGAUAAGAGCAGCAAAAUAUCGUGACCACGUGACAGCAACUCAACUAAUCCAGAAAAUUAUCAACAUUCUCACAGACAAGCAUGGAGCCUGGGGAAAUUCUGCAGUGACAACAGAGGAUUGAGCAUCA
B14: chr7:135928980:135929074:-|3pUTR|ENSG00000105887|msi1_unk|FALSE|overlapping (ssRNA)
RNA: GGGAGUUCUACAGUCCGACGAUCUAAAAAUAGAAUCAUAGCCAUAAGCCUGUUAGUAUCAUAUGAAGAGAGAACAGUUAUCUUAGUACCUAUGGAUUUUCUUUAUUUGCUGUUUGAAUGGAUUGACCUUGGUUAUGUGUUGAGCAACAGAGGAUUGAGCAUCA
B15: chr5:83942588:83942842:-|3pUTR|ENSG00000164176|msi1|total|mutant (ssRNA)
RNA: GGGAGUUCUACAGUCCGACGAUCUUUUCUAAUUGAAUUUCCUAUCCGUUGACUAAAAGAAGUGUCAUGUUUACUCAUAUAUGCCGAACAUGACUGCCUAUCAGCCGAUUGAUCUGUAUUUAAUAUUCGUUAAUUAAAUCUGCACAACAGAGGAUUGAGCAUCA
B16: chr5:103210461:103210562:+|3pUTR|ENSG00000145725|unk|total|mutant (ssRNA)
RNA: GGGAGUUCUACAGUCCGACGAUCGAAUAAGGAGCUGGGAGAAAGGAGACCUGGGUAUUAAUCUCAGCUCUACCACUACAUGGCCGAGCUAUGCCGUGGCCGACUAUCUGGGAGACUCCCGAAUCUUUACCAUUCCCUCUACUACAACAGAGGAUUGAGCAUCA
B17: ENSG00000039319:stop:overlap|stop_codon|ENSG00000039319|stop_codon|NA|stop_codon (ssRNA)
RNA: GGGAGUUCUACAGUCCGACGAUCCCAACUCUAGUUUACCAUUAGAAAUAGAAUUAGUGUUUUUCAUUAUAGAACAUCUUUUUUAGUGAAAGAAUGUGCCAUAUUACAUAUUGCAACCUAAUUUGUUAAAACUAACUCCAGCACCAACAGAGGAUUGAGCAUCA
B18: chr7:66987971:66988072:-|3pUTR|ENSG00000126524|unk|total|mutant (ssRNA)
RNA: GGGAGUUCUACAGUCCGACGAUCAAGUUACUUGAGGCAGCUCUUGUGGGUGAAAAGUUAUUUGUACAGCCGAGUAAGAUUAUCCGGGGUAUGUCUAUACAACAAAAGGGGGGGUCUUUCCUAAAAAAGAAAACAUAUGAUGCUCAACAGAGGAUUGAGCAUCA
B19: chr7:130166276:130166377:-|3pUTR|ENSG00000146842|msi1|total|mutant (ssRNA)
RNA: GGGAGUUCUACAGUCCGACGAUCUCUCUGAGCCACUGACUCUUCUGAAAUAAAAUACACAUGGGUGUAUGUUACAGACUCUUCCGAUUUAACAGAAAAUGCCGCUGUUAUGAAAUGUAAUUGUAAAAAUAUGUCCCGUAUCUUCAACAGAGGAUUGAGCAUCA
B20: chr15:97973610:97973711:+|3pUTR|ENSG00000140450|unk|total|mutant (ssRNA)
RNA: GGGAGUUCUACAGUCCGACGAUCGGUGCACAAAAUCCUUCUGUGGGCAAAACUUUGUUUUUGUUUUGCACAGUAAGAAACAACCGGCAAGCGUUAUGUUUUUGGUAAGUUAACUAUGAAAGCUUUCUUAUUUUUAUUAUUAAACAACAGAGGAUUGAGCAUCA
B21: ENSG00000107863:be:win_151|CDS|ENSG00000107863|bound_else_gene|NA|bound_elsewhere_windowed (ssRNA)
RNA: GGGAGUUCUACAGUCCGACGAUCGUUACGUUGAAAAGAACAUCUCAAGGCUUUGGUUUUACAUUAAGACAUUUUAUUGUUUAUCCCCCAGAGUCUGCAAUUCAAUUUUCAUAUAAGGAUGAAGAAAAUGGAAACAGAGGAGGACAACAGAGGAUUGAGCAUCA
B22: chr11:88113250:88114123:-|three_prime_utr|ENSG00000123892|control|control|control (ssRNA)
RNA: GGGAGUUCUACAGUCCGACGAUCUCGUGAAGCCCCAUCUCACAUCAACCAAGGUUGCCAGCUGCUCUGGCUGUGCCAAAUCCUAGUAGGCACCUUUGCUGGUGUCUGGUAGGAAUGACCUCAUUGUUCCACAAAUUGUGCCUCCAACAGAGGAUUGAGCAUCA

For the experiment, the target named is T1, UNK ZnF1-6 (called full-length) (human, UniProt Q9C0B0 30-357).
T1 sequence: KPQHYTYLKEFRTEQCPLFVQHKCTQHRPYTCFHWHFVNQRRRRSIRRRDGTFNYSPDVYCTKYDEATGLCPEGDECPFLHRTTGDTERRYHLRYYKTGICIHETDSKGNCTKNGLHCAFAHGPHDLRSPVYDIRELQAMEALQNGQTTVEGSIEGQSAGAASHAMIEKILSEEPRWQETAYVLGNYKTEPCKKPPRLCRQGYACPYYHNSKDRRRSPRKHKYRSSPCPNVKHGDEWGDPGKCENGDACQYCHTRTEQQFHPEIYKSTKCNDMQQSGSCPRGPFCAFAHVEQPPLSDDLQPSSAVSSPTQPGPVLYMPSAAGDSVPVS
The experiment can be described thus: nsRBNS (natural sequence RNA bind-n-seq); RBNS binding buffer (assumed for nsRBNS): 25 mM Tris pH 7.5, 150 mM KCl, 3 mM MgCl2, 0.01% Triton X-100, 500 ug/ml BSA, 20 U/ml SUPERase-In, 4 C; UNK is unkempt and MSI1 is Musashi-1; names of the RNAs are library labels; protein concentration not given here; high values mean tight binding.
Consider B1, for which the binding signal was 1.41 enrichment R.
To B2 belongs 1.55 enrichment R; to B3, 0.458 enrichment R; to B4, 0.19 enrichment R.
To B5 belongs 0.527 enrichment R; to B6, 0.711 enrichment R.
In the case of B7 it was 1.07 enrichment R.
With B8, the binding signal amounted to 0.479 enrichment R.
In the case of B9 it was 0.34 enrichment R; in that of B10, 1.18 enrichment R.
To B11 belongs 0.652 enrichment R; to B12, 0.438 enrichment R.
To B13 belongs 0.596 enrichment R.
Turning to B14, the binding signal is 0.98 enrichment R.
Molecule B15 came in with a binding signal of 0.36 enrichment R.
B16 came in with a binding signal of 0.654 enrichment R.
Consider B17, for which the binding signal turned out to be 1.17 enrichment R.
Molecule B18 returned a binding signal of 0.57 enrichment R.
The molecule B19 showed a binding signal of 0.353 enrichment R.
In the case of B20 it was 0.965 enrichment R; in that of B21, 0.628 enrichment R.
To B22 belongs 0.481 enrichment R.

Values taken from paper PMC12136788.
